In PubChem BioAssay AID624202 (National Center for Advancing Translational Sciences (NCATS), 2012):
Screen size: about 380,000 compounds; about 4,000 (1.1%) were called active. Inconclusive means that the source gave no clear call. Such entries were picked first, then a sample of the others. Calls follow the shape of the dose curve; as a rule, active = well fitted activation curve with a large enough effect; inconclusive = small, poorly fitted or top-dose-only effect; inactive = no such curve, though single readings can be large or run the other way. A potency beside an inconclusive call is a rough fit, not a confirmed value.

Assay: qHTS Assay to Identify Small Molecule Activators of BRCA1 Expression; also: nearly all actives have a fitted effect of over 80% in size
Details: MCF7-BRCA1-FFLuc reporter, luminescence, 48 h; activation: at 46.1 µM (top of the series), scaled: vehicle 0%, 10 µM genistein 100% unless noted
In short: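 MCF7 cells carrying a BRCA1-firefly luciferase reporter (2000 cells/well, phenol-red free MEM) were attached for 2 h at 37 °C, then given compounds for 48 h. Luminescence was read 15 min after luciferase reagent; activity normalized to genistein (10 microM) and DMSO.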
Potency is read from the fitted curve at half-maximal effect; tags tell the direction and shape of the fitted curve.

Q: For `COc1cccc(C(=O)O/N=C(\N)CS(=O)(=O)c2ccccc2)c1`, which Potency is on record?
A: inconclusive: 12.6 µM [activator, partial curve, poor fit]

Q: Which Potency does the source give for `Cc1cccc(NC(=O)c2ccoc2C)n1` here?
A: inconclusive: 15.8 µM [activator, partial curve, poor fit]

Q: With `Cc1nnc(NC(=O)c2cc3ccccc3o2)s1` as the compound, how does the Potency read?
A: active: 7.08 µM

Q: Which Potency does the source give for `CC(C)COc1cccc(C(=O)Nc2ccc(CN3CCOCC3)cc2)c1` here?
A: inactive

Q: Which Potency does the source give for `CN(C)CCN(C(=O)c1ccc(S(=O)(=O)N(C)C)cc1)c1nc2cc3c(cc2s1)OCCO3` here?
A: inconclusive: 35.5 µM [activator, single point]

Q: Which Potency does the source give for `COc1ccccc1-c1coc2cc(O)cc(O)c2c1=O` here?
A: inconclusive: 12.6 µM [activator, single point]

Q: Which Potency does the source give for `CCCCNC(=O)Cn1nc(-c2ccc(C)cc2)ccc1=O` here?
A: inactive

Q: With `CC(Sc1ccccc1F)C(=O)Nc1ccc2c(c1)OCCO2` (stereo not drawn) as the compound, how does the Potency read?
A: active: 11.2 µM

Q: For `O=C(/C=C/c1ccccc1Cl)Nc1cccc(O)c1`, which Potency is on record?
A: inconclusive: 35.5 µM [activator, single point]

Q: With `Cc1ccc(C(=O)CC(=O)c2ccccc2)cc1` as the compound, how does the Potency read?
A: active: 5.01 µM

Q: Which Potency does the source give for `NC(=O)c1c(NC(=O)C2CCCO2)sc2c1CCCCC2` (stereo not drawn) here?
A: inconclusive: 11.2 µM [activator, partial curve, poor fit]

Q: With `CC(C)Cc1ccc(C(=O)NCCOc2ccccc2)o1` as the compound, how does the activation read?
A: inconclusive: 86.3% [activator]

Q: For `COc1ccc(Nc2nc(N)nc(CSc3nccn3C)n2)cc1`, which Potency is on record?
A: active: 3.16 µM

Q: With `Cc1cccc(-c2nnc(SCC(=O)Nc3nc4c(s3)CCCC4)n2C)c1` as the compound, how does the Potency read?
A: inactive

Q: For `O=C(N/N=C/c1cc([N+](=O)[O-])cc(Br)c1O)C12CC3CCC(CC(C3)C1)C2`, which Potency is on record?
A: inactive

Q: Which Potency does the source give for `COc1ccc(C(=O)Cc2cc3cccc(OC)c3oc2=O)cc1` here?
A: active: 15.8 µM

Q: For `Cc1nc(CC(=O)Nc2nc(-c3ccccc3)cs2)cs1`, which Potency is on record?
A: active: 11.2 µM

Q: For `COc1ccc(C(=O)Nc2ccc3[nH]ncc3c2)cc1`, which Potency is on record?
A: inconclusive: 1.58 µM [activator, full curve, poor fit]

Q: For `CC1CCN(S(=O)(=O)c2ccc3c(ccc(=O)n3CC(=O)NCc3ccc(Cl)cc3)c2)CC1`, which Potency is on record?
A: inactive

Q: With `Cc1ccc(O)c(NC(=S)NC(=O)CC(C)C)c1` as the compound, how does the Potency read?
A: active: 12.6 µM

Q: With `O=C(C(=O)N1CCN(c2ccc(F)cc2)CC1)c1c[nH]c2ccccc12` as the compound, how does the Potency read?
A: inactive

Q: With `O=C(CSC(=S)N1CCSCC1)c1ccc(Cl)cc1` as the compound, how does the Potency read?
A: inconclusive: 2.24 µM [activator, full curve, poor fit]

Q: Which Potency does the source give for `Cc1cc(N2CCOCC2)ccc1/C=C1\SC(=O)N(C(C)C)C1=O` here?
A: inconclusive: 2.82 µM [activator, full curve, poor fit]

Q: Which Potency does the source give for `COc1ccc(C(=O)NCCSC2CCCCC2)cc1` here?
A: active: 1.78 µM

Q: For `COc1c(C(=O)NNC(=O)c2ccccc2)csc1Br`, which Potency is on record?
A: inconclusive: 8.91 µM [activator, partial curve, poor fit]

Q: Which Potency does the source give for `O=C(Nc1ccc(OC(F)F)c(Cl)c1)c1ccccn1` here?
A: inconclusive: 1.58 µM [activator, full curve, poor fit]

Q: Which Potency does the source give for `COc1ccc2cc(-c3ccccc3)c(=O)oc2c1` here?
A: inconclusive: 0.631 µM [activator, full curve, poor fit]

Q: With `CCOc1cccc2cc(-c3nnc(NCc4ccco4)s3)c(=O)oc12` as the compound, how does the Potency read?
A: inconclusive: 12.6 µM [activator, partial curve, poor fit]

Q: For `O=C(Nc1ccc(Cl)c(Cl)c1)Nc1ccccc1O`, which Potency is on record?
A: active: 2.82 µM

Q: With `Clc1ccc(-c2cn3cc(Cc4ccccc4)sc3n2)cc1` as the compound, how does the Potency read?
A: inconclusive: 0.562 µM [activator, full curve, poor fit]

Q: With `N#Cc1ccc(NC(=O)c2cccs2)nc1` as the compound, how does the Potency read?
A: inconclusive: 10 µM [activator, partial curve, poor fit]

Q: With `O=C(Nc1ccc(Cl)cc1)Nc1nnc(SCc2ccccc2)s1` as the compound, how does the Potency read?
A: inconclusive: 12.6 µM [activator, partial curve, poor fit]

Q: With `Cc1ccc(NC(=S)c2ccc3ccccc3n2)c(C)c1` as the compound, how does the Potency read?
A: inactive

Q: For `Cn1cccc1-c1cc(C(=O)N/N=C/c2ccccc2Cl)[nH]n1`, which Potency is on record?
A: active: 8.91 µM

Q: Which Potency does the source give for `CCCCCCNC(=O)c1cc(-c2ccco2)nc2ccccc12` here?
A: inactive

Q: Which Potency does the source give for `COc1ccc(OC)c(/C=N/NC(=O)CCCC(=O)Nc2cccc(Br)c2)c1` here?
A: inactive

Q: Which activation does the source give for `CN(C)c1ccc(/C=C2\SC(=O)N(CCc3nnc(N)s3)C2=O)cc1` here?
A: inconclusive: -58.6% [activator]

Q: For `COc1ccc(C2=NOC(CNC(N)=S)C2)cc1` (stereo not drawn), which Potency is on record?
A: active: 3.16 µM

Q: For `COc1ccc(S(=O)(=O)N2CCN(CCc3ccccc3)CC2)c(OC)c1`, which Potency is on record?
A: inactive

Q: For `Cc1ccc(-c2nc3ccc(Br)cn3c2Cc2cccc(F)c2)cc1`, which Potency is on record?
A: active: 3.16 µM

Q: With `CCn1ccnc1CN(C)C(=O)c1cc(COc2ccccc2SC)on1` as the compound, how does the Potency read?
A: inconclusive: 20 µM [activator, partial curve, poor fit]

Q: Which Potency does the source give for `O=C(N/N=C/c1ccccc1F)c1cccc2ccccc12` here?
A: inactive

Q: For `O=C(NCCCc1ccccc1)c1ccc(F)cc1`, which Potency is on record?
A: active: 7.08 µM

Q: Which Potency does the source give for `CC(c1ccccn1)N(C)C(=O)c1ccc2nc(Cc3cccc(Cl)c3)oc2c1` (stereo not drawn) here?
A: inconclusive: 11.2 µM [activator, partial curve, poor fit]

Q: Which Potency does the source give for `COc1ccc(CNC(=O)C(C#N)c2nc3ccccc3nc2N2CCN(C)CC2)cc1` (stereo not drawn) here?
A: inactive

Q: For `COCC(=O)Nc1nnc(COc2ccc(Cl)cc2)s1`, which Potency is on record?
A: inconclusive: 35.5 µM [activator, single point]

Q: Which Potency does the source give for `Cc1ccc(-c2cc(N)n(-c3ccccc3)n2)cc1` here?
A: inconclusive: 2.24 µM [activator, full curve, poor fit]

Q: For `Cn1cccc1C(=O)OCC(=O)Nc1ccc2c(c1)CCC2`, which Potency is on record?
A: inconclusive: 15.8 µM [activator, partial curve, poor fit]

Q: For `COc1ccc(C(=O)CCc2ccccc2)cc1`, which Potency is on record?
A: inconclusive: 17.8 µM [activator, single point]

Q: Which Potency does the source give for `O=C(c1noc2c1CCCC2)N1CCc2ccccc2C1` here?
A: active: 5.62 µM

Q: With `CC(C)C(NC(=O)OCc1ccccc1)C(=O)OCC(=O)N1CCCCC1` (stereo not drawn) as the compound, how does the Potency read?
A: inconclusive: 11.2 µM [activator, partial curve, poor fit]

Q: With `COc1cccc(-c2nc3ccc(C(=O)NC(C)Cc4cccnc4)cc3o2)c1` (stereo not drawn) as the compound, how does the Potency read?
A: inconclusive: 1.26 µM [activator, full curve, poor fit]

Q: For `CCCCOc1ccc(-c2csc(N)n2)cc1[N+](=O)[O-]`, which Potency is on record?
A: inconclusive: 2 µM [activator, full curve, poor fit]

Q: For `O=C(/C=C/c1cccs1)N1CCCC1`, which Potency is on record?
A: inactive

Q: With `Cc1ccc(C(=O)NCCn2cc(SCC(=O)Nc3nnc(C)s3)c3ccccc32)cc1` as the compound, how does the Potency read?
A: inactive

Q: With `CC(=O)N1c2ccc(S(=O)(=O)NCC3CCC(C(=O)NC4CCCCC4C)CC3)cc2CC1C` (stereo not drawn) as the compound, how does the Potency read?
A: inactive

Q: For `CN(C)c1ccc(/C=C/c2c(F)cnc3ccccc23)cc1`, which Potency is on record?
A: inconclusive: 35.5 µM [activator, single point]

Q: With `COc1ccc(N2C(=O)c3ccccc3NC2c2ccc(OC)c(CN3CCOCC3)c2)cc1` (stereo not drawn) as the compound, how does the Potency read?
A: inconclusive: 2.24 µM [activator, full curve, poor fit]

Q: For `OCc1ccc(N=Nc2ccccc2)cc1`, which Potency is on record?
A: active: 3.16 µM

Q: With `CCOc1ccc(NC(=O)c2cccs2)c([N+](=O)[O-])c1` as the compound, how does the Potency read?
A: inconclusive: 1.12 µM [activator, full curve, poor fit]

Q: Which Potency does the source give for `COc1cc(NC(=O)c2ccc3snnc3c2)cc(OC)c1` here?
A: active: 11.2 µM

Q: With `O=C1S/C(=C\C=C\c2ccco2)C(=O)N1c1ccccc1` as the compound, how does the Potency read?
A: active: 3.55 µM

Q: For `N#C/C(=C\c1cccs1)C(=O)Nc1ccccn1`, which Potency is on record?
A: active: 10 µM

Q: Which Potency does the source give for `N/C(=N\OC(=O)COc1ccccc1Cl)c1ccc(Cl)cc1` here?
A: inconclusive: 15.8 µM [activator, single point]

Q: For `COc1ccc(CNC(=O)Cn2cnc3c(OCc4ccccc4)ncnc32)cc1`, which Potency is on record?
A: inactive

Q: Which Potency does the source give for `c1cncc(-c2nc(-c3ccc4c(c3)OCCO4)cs2)c1` here?
A: inconclusive: 1.58 µM [activator, partial curve, poor fit]

Q: For `Cc1ccc(NC(=O)c2cc3ccccc3o2)nc1`, which Potency is on record?
A: inconclusive: 2 µM [activator, partial curve, poor fit]

Q: With `CC(=O)Nc1cccc(-c2csc(Nc3ccc(Cl)cn3)n2)c1` as the compound, how does the Potency read?
A: inconclusive: 2.51 µM [activator, full curve, poor fit]

Q: Which Potency does the source give for `COC(=O)CNc1c(-c2ccccn2)nc2ccc(Br)cn12` here?
A: active: 4.47 µM

Q: Which Potency does the source give for `CC(=O)Nc1ccc2sn(-c3ccccc3)c(=O)c2c1` here?
A: inactive

Q: For `CN(C)c1ccc(NC(=O)N2CCOCC2)cc1`, which Potency is on record?
A: inactive

Q: With `Cc1csc(NC(=O)Cc2ccc(F)cc2)n1` as the compound, how does the Potency read?
A: inconclusive: 10 µM [activator, partial curve, poor fit]

Q: Which Potency does the source give for `COc1ccc(C(=O)Nc2cccc(/C=C(\CCC(=O)O)c3nc4ccccc4s3)c2)cc1` here?
A: inconclusive: 31.6 µM [activator, single point]

Q: With `Cc1ccsc1/C=N/NC(=O)Nc1ccccc1` as the compound, how does the Potency read?
A: inconclusive: 1.58 µM [activator, partial curve, poor fit]

Q: For `CC(C)(C)C(=O)Nc1nc(-c2ccccc2)ns1`, which Potency is on record?
A: inconclusive: 0.501 µM [activator, full curve, poor fit]

Q: For `COc1cc(SC)ccc1C(=O)NCCc1ccccc1`, which Potency is on record?
A: inconclusive: 2.82 µM [activator, full curve, poor fit]

Q: For `CCCn1c(N)c(N(CCOC)C(=O)/C=C/c2cccc(Cl)c2)c(=O)[nH]c1=O`, which Potency is on record?
A: inactive

Q: Which Potency does the source give for `Cc1ccc(OCC(=O)N2CCCc3ccccc32)cc1` here?
A: inconclusive: 25.1 µM [activator, single point]
